The values below come from the antibiotic and cytotoxicity screens of Wong et al. (2023).

The list shows a part of the results.

One assay concerns HSkMC. The assay can be described thus: cytotoxicity call (relative viability < 0.9). The settings on record: 10 µM.
A further assay relates to HepG2. The assay can be described thus: cytotoxicity call (relative viability < 0.9). Conditions: 10 µM.
The next assay deals with S. aureus RN4220. The experiment in a line: growth inhibition call (relative growth <= 0.2). Conditions: 50 µM.

`COCC(=O)Nc1ccc2c(c1)C(=O)N(C)[C@@H]1CC[C@H](CC(=O)N3CCc4ccccc4C3)O[C@@H]1CO2`: the cytotoxicity call in the assay on HSkMC and with HepG2 was “inactive” throughout. Moreover, in the assay on S. aureus RN4220, the growth inhibition call was “inactive”.

For the molecule `CO[C@H]1CN(C)C(=O)c2cc(NC(C)=O)ccc2OC[C@H](C)N(S(=O)(=O)c2cn(C)cn2)C[C@@H]1C`, the cytotoxicity call in the assay on HSkMC and in the assay with HepG2 was “inactive” each time. The growth inhibition call with S. aureus RN4220 is “inactive”.

As for `C[C@H](CO)N1C[C@H](C)[C@@H](CN(C)C(=O)C2CCCCC2)Oc2cc(Br)ccc2S1(=O)=O`, the cytotoxicity call with HSkMC and in the assay with HepG2 was “inactive” in each case. Moreover, the growth inhibition call in the assay on S. aureus RN4220 was “inactive”.

Turning to `CC(C)NC(=O)N(C)C[C@H]1Oc2cc(C#Cc3ccc(F)cc3)ccc2S(=O)(=O)N([C@@H](C)CO)C[C@@H]1C`, the cytotoxicity call with HSkMC and in the assay with HepG2 was “inactive” in each case. In the assay with S. aureus RN4220, the growth inhibition call is “inactive”.

`COCC#Cc1cnc2c(c1)C(=O)N([C@H](C)CO)C[C@H](C)[C@@H](CN(C)C(C)=O)O2`: the cytotoxicity call with HSkMC and with HepG2 was “inactive” each time. Besides, the growth inhibition call with S. aureus RN4220 is “inactive”.

With `CCCOc1ccc(C(=O)OCCN(CC)CC)cc1N.Cl`, the cytotoxicity call with HSkMC and in the assay on HepG2 was “inactive” in each case. In addition, the growth inhibition call in the assay on S. aureus RN4220 is “inactive”.

In the case of `COCC(=O)Nc1ccc2c(c1)OC[C@@H](C)N(Cc1ccccc1OC)C[C@H](C)[C@H](OC)CN(C)C2=O`, the cytotoxicity call with HSkMC and with HepG2 was “inactive” each time. In addition, in the assay on S. aureus RN4220, the growth inhibition call was “inactive”.

In the case of `COc1ccc(NC(=O)Nc2ccc3c(c2)C(=O)N([C@@H](C)CO)C[C@@H](C)[C@H](CN(C)C(=O)NC(C)C)OCCCC[C@@H](C)O3)cc1`, the cytotoxicity call in the assay on HSkMC and in the assay on HepG2 was “inactive” throughout. The growth inhibition call in the assay on S. aureus RN4220 was “inactive”.

Take `COc1ccc(-c2cnc3c(c2)C(=O)N([C@H](C)CO)C[C@@H](C)[C@@H](CN(C)C(=O)C2CCOCC2)O3)cc1`: the cytotoxicity call in the assay on HSkMC and in the assay with HepG2 was “inactive” in each case. Also, the growth inhibition call with S. aureus RN4220 was “inactive”.

`C[C@@H]1CCCCO[C@@H](CN(C)S(=O)(=O)c2ccc(F)cc2)[C@@H](C)CN([C@@H](C)CO)C(=O)c2cc(NC(=O)Nc3ccc(C(F)(F)F)cc3)ccc2O1`: the cytotoxicity call with HSkMC is “inactive”. For the same molecule, in the assay on HepG2, the cytotoxicity call is “active”. Further, in the assay with S. aureus RN4220, the growth inhibition call was “inactive”.

Regarding `COc1ccc(NC(=O)Nc2ccc3c(c2)C(=O)N([C@H](C)CO)C[C@@H](C)[C@@H](CN(C)S(=O)(=O)c2ccc(Cl)cc2)OCCCC[C@@H](C)O3)cc1`, the cytotoxicity call in the assay with HSkMC and in the assay with HepG2 was “inactive” throughout. Further, in the assay with S. aureus RN4220, the growth inhibition call was “inactive”.

In the case of `C[C@@H]1CN([C@H](C)CO)C(=O)c2cc(NC(=O)Cc3ccccc3)ccc2O[C@H]1CN(C)Cc1ccc(-c2ccccc2)cc1`, the cytotoxicity call in the assay on HSkMC was “inactive”. For the same molecule, the cytotoxicity call in the assay with HepG2 was “active”. Also, the growth inhibition call in the assay on S. aureus RN4220 is “inactive”.

On to `O=C(C[C@H]1C=C[C@H](NC(=O)c2cccnc2)[C@H](CO)O1)NCc1ccncn1`, for which the cytotoxicity call in the assay with HSkMC and in the assay with HepG2 was “inactive” each time. In addition, the growth inhibition call in the assay on S. aureus RN4220 is “inactive”.

As to `COc1ccc(CN(C)C[C@@H]2Oc3ccc(NS(=O)(=O)c4c(C)noc4C)cc3C(=O)N([C@@H](C)CO)C[C@H]2C)cc1`, the cytotoxicity call in the assay with HSkMC and with HepG2 was “inactive” throughout. Also, the growth inhibition call with S. aureus RN4220 is “inactive”.

For the molecule `C[C@@H]1CN([C@H](C)CO)C(=O)Cc2cc(NC(=O)CCN3CCOCC3)ccc2O[C@@H]1CN(C)S(=O)(=O)c1cn(C)cn1`, the cytotoxicity call with HSkMC and in the assay on HepG2 was “inactive” throughout. The growth inhibition call with S. aureus RN4220 is “inactive”.

Turning to `C[C@@H]1CCCCO[C@@H](CN(C)S(C)(=O)=O)[C@H](C)CN([C@@H](C)CO)C(=O)c2cc(NS(=O)(=O)c3ccc(F)cc3)ccc2O1`, the cytotoxicity call in the assay with HSkMC and in the assay on HepG2 was “inactive” in each case. For the same molecule, the growth inhibition call in the assay with S. aureus RN4220 is “inactive”.

As for `Cc1cc(=O)n2nc(S(C)(=O)=O)nc2[nH]1`, the cytotoxicity call with HSkMC and in the assay on HepG2 was “inactive” in each case. Besides, the growth inhibition call with S. aureus RN4220 is “inactive”.

For `COc1ccc(S(=O)(=O)N2C[C@H](O)COC[C@@H]3O[C@H](CC(=O)NCCCN(C)C)CC[C@H]32)cc1`, the cytotoxicity call in the assay with HSkMC and with HepG2 was “inactive” in each case. In the assay with S. aureus RN4220, the growth inhibition call is “inactive”.

`C[C@H](CO)N1C[C@H](C)[C@@H](CN(C)Cc2ccc(C(=O)O)cc2)Oc2c(NS(=O)(=O)c3cn(C)cn3)cccc2C1=O`: the cytotoxicity call in the assay on HSkMC and in the assay on HepG2 was “inactive” in each case. Also, in the assay with S. aureus RN4220, the growth inhibition call is “inactive”.

On to `CC(C)NC(=O)N(C)C[C@H]1OCCCC[C@H](C)Oc2ccc(NC(=O)Nc3cccc4ccccc34)cc2C(=O)N([C@H](C)CO)C[C@H]1C`, for which the cytotoxicity call in the assay with HSkMC and in the assay with HepG2 was “inactive” each time. The growth inhibition call in the assay on S. aureus RN4220 is “inactive”.

`CN(C)CC(=O)N1[C@@H]2Cn3c(ccc(-c4ccccc4)c3=O)[C@H]1[C@@H](C(=O)N1CCOCC1)[C@@H]2CO`: the cytotoxicity call in the assay on HSkMC and in the assay with HepG2 was “inactive” each time. The growth inhibition call with S. aureus RN4220 was “inactive”.

On to `C[C@H]1CN([C@@H](C)CO)C(=O)c2cc(C#CC3(O)CCCC3)cnc2O[C@H]1CN(C)S(=O)(=O)c1ccccc1`, for which the cytotoxicity call in the assay with HSkMC and with HepG2 was “inactive” in each case. For the same molecule, in the assay on S. aureus RN4220, the growth inhibition call is “inactive”.

Turning to `COc1cccc(S(=O)(=O)Nc2ccc3c(c2)[C@H]2C[C@@H](CC(=O)NCCc4ccccc4)O[C@H](CO)[C@H]2O3)c1`, the cytotoxicity call in the assay on HSkMC is “active”. Further, in the assay on HepG2, the cytotoxicity call was “inactive”. Also, the growth inhibition call in the assay with S. aureus RN4220 is “inactive”.

With `C[C@@H]1CN([C@H](C)CO)S(=O)(=O)c2ccc(C#Cc3ccncc3)cc2O[C@@H]1CN(C)C(=O)C1CCOCC1`, the cytotoxicity call in the assay on HSkMC was “inactive”. Further, the cytotoxicity call in the assay with HepG2 is “active”. For the same molecule, the growth inhibition call in the assay on S. aureus RN4220 was “inactive”.

For `CC(C)CC#Cc1ccc2c(c1)O[C@@H](CN(C)C(=O)c1ccccn1)[C@H](C)CN([C@H](C)CO)S2(=O)=O`, the cytotoxicity call in the assay with HSkMC and in the assay on HepG2 was “inactive” throughout. Moreover, the growth inhibition call with S. aureus RN4220 is “inactive”.

For `C[C@H](CO)N1C[C@H](C)[C@H](CN(C)C(=O)CCCN(C)C)OCc2cnnn2CCCC1=O`, the cytotoxicity call in the assay on HSkMC (human skeletal muscle cells) and in the assay on HepG2 was “inactive” in each case. For the same molecule, in the assay on S. aureus RN4220, the growth inhibition call is “inactive”.

`C[C@@H]1CN([C@H](C)CO)C(=O)Cc2cc(NC(=O)Nc3cccc4ccccc34)ccc2O[C@@H]1CN(C)Cc1ccncc1`: in the assay with HSkMC, the cytotoxicity call is “inactive”. The cytotoxicity call with HepG2 was “active”. Moreover, the growth inhibition call in the assay with S. aureus RN4220 was “inactive”.
